Results: PubChem BioAssay (Tox21)
Several values for one entry are separate records, joined by “and”; a condition that tells them apart may be missing. Equal values may be shown once. Inconclusive results, whose numbers are uncertain, are shown with a selection of clear calls. Where the call is inconclusive, the potency comes from a doubtful curve fit. Some compounds were tested as several samples or in several runs, with calls that do not always agree. Activity calls are given as the source filed them. Calls follow the shape of the dose curve; as a rule, active = well fitted curve in the direction sought with a large enough effect in the repeat runs; inconclusive = weak or mixed curves; inactive = no such curve, though single readings can be large; an effect the other way counts as inactive or inconclusive.

Target: Nuclear receptor subfamily 1 group I member 2 (Homo sapiens) (UniProt O75469)
Assay: Human pregnane X receptor (PXR) activation by small molecules, qHTS assay (AID 1346985); also: nearly all actives have a fitted effect of over 40% in size
Details: DPX-2 HepG2 CYP3A4-luciferase, 24 h; series mostly up to 38.3 µM; activation: at the top concentration
Summary of the method: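 DPX-2 cells (HepG2 co-transfected with a PXR response element and a CYP3A4-promoter luciferase construct) were seeded at 2,000 per well, rested 5 hr at 37C, then exposed to DMSO-dissolved compounds for 24 hr. Activation was read as luciferase luminescence.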
% is scaled to controls: 0 for no effect and ±100 for the full control effect; potency is read from the fitted curve at half-maximal effect; tags tell the direction and shape of the fitted curve.

Row | SMILES | Potency | activation
1 | CCN(CC)CCSC(=O)C(c1ccccc1)c1ccccc1 | inactive | –
2 | CCc1oc2ccccc2c1C(=O)c1cc(I)c(O)c(I)c1 | inconclusive: 15.8 µM [activator, partial curve, poor fit] | –
3 | OC[C@H]1O[C@@H](O[C@@H]2[C@@H](CO)O[C@](O)(CO)[C@H]2O)[C@H](O)[C@@H](O)[C@H]1O | – | inactive: -5.94%

Target: Cytochrome P450 2D6 (Homo sapiens) (UniProt P10635)
UniProt P10635, sequence (P10635 whole entry, looked up): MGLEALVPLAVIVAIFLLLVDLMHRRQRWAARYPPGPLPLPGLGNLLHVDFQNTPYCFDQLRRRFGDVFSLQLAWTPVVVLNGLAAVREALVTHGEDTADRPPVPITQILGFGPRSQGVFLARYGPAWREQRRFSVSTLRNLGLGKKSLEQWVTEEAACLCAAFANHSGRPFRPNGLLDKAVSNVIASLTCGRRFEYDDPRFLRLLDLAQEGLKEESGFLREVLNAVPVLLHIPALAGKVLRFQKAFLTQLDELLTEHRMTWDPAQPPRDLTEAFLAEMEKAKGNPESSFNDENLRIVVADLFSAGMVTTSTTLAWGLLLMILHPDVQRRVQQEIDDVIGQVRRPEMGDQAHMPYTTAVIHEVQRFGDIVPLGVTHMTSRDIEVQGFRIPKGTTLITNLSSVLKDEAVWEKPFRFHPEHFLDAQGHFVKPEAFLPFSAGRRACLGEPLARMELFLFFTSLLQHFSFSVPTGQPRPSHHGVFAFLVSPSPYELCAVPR
Assay: Cytochrome P450 Family 2 Subfamily D Member 6 (CYP2D6) small molecule antagonists: luciferase reporter qHTS assay (AID 1671196); also: nearly all actives have a fitted effect of over 50% in size
Details: P450-Glo CYP2D6 enzyme assay, luciferin luminescence, 1 h; series mostly up to 115 µM; activity change, negative = inhibition: at the top concentration
Summary of the method: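 Quantitative HTS of Tox21 chemicals against CYP2D6 using a luminescent proluciferin substrate. After NADPH addition, 1 h room-temperature reaction; luminescence recorded 20 min post detection reagent.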

Row | SMILES | Potency
4 | O=C(O)c1cccc(Cl)n1 | inconclusive: 35.6 µM [inhibitor, full curve]
5 | CN1CCC(=C2c3ccccc3C=Cc3ccccc32)CC1 | active: 2.45 µM
6 | C[C@H]1[C@H]2CC[C@H]3[C@@H]4CC=C5C[C@@H](N(C)C)CC[C@]5(C)[C@H]4CC[C@]23CN1C | inconclusive: 38.9 µM [inhibitor, partial curve]
7 | Cc1ccc(CCn2c3c(c4cc(Cl)ccc42)CN(C)CC3)cn1 | active: 7.76 µM
8 | CCN(CC)CCSC(=O)C(c1ccccc1)c1ccccc1 | active: 4.9 µM
9 | COc1ccccc1Oc1c(NS(=O)(=O)c2ccc(C(C)(C)C)cc2)nc(-c2ncccn2)nc1OCCO | inconclusive: 43.6 µM [inhibitor, single point]
10 | CCCCC/C=C\C/C=C\CCCCCCCC(=O)NC(C)c1ccccc1 (centres undefined) | active: 4.36 µM
11 | CCN(CCCc1ccccc1)CCCc1ccccc1 | active: 0.871 µM
12 | CCc1oc2ccccc2c1C(=O)c1cc(I)c(O)c(I)c1 | inconclusive: 43.6 µM [inhibitor, single point]
13 | NC=O | inactive
14 | CCCOC(=O)c1cc(O)c(O)c(O)c1 | active: 31.6 µM and active: 35.6 µM
15 | CC(N)CCCC(C)(C)O (centres undefined) | inconclusive: 0.776 µM [inhibitor, full curve]
16 | CCOC(=O)c1ccc(OC(=O)CCCCCN=C(N)N)cc1 | active: 0.309 µM
17 | COc1cc(C(C)C)c2c(c1)S(=O)(=O)N(COc1cc(=O)n3cccc(OCCN4CCCCC4)c3n1)C2=O | inconclusive: 16.9 µM [inhibitor, single point]
18 | C[C@@H]1C[C@H]2O[C@@]3(O[C@@H]2C(C)(C)O)[C@H](O)[C@@]2(C)[C@@H]4CC[C@H]5C(C)(C)[C@@H](O[C@@H]6OC[C@@H](O)[C@H](O)[C@H]6O)CC[C@@]56C[C@@]46CC[C@]2(C)[C@@H]13 | inconclusive: 44.2 µM [inhibitor, partial curve, poor fit]
19 | O=C(N/N=C/c1ccc([N+](=O)[O-])o1)c1ccc(O)cc1 | inconclusive: 24.5 µM [inhibitor, partial curve, poor fit]
20 | CCOC(=O)C1=C[C@]2(CC)CCCN3CCc4c(n1c1ccccc41)[C@@H]32 | active: 2.75 µM

Target: Cytochrome P450 2C19 (Homo sapiens) (UniProt P33261)
UniProt P33261, sequence (P33261 whole entry, looked up): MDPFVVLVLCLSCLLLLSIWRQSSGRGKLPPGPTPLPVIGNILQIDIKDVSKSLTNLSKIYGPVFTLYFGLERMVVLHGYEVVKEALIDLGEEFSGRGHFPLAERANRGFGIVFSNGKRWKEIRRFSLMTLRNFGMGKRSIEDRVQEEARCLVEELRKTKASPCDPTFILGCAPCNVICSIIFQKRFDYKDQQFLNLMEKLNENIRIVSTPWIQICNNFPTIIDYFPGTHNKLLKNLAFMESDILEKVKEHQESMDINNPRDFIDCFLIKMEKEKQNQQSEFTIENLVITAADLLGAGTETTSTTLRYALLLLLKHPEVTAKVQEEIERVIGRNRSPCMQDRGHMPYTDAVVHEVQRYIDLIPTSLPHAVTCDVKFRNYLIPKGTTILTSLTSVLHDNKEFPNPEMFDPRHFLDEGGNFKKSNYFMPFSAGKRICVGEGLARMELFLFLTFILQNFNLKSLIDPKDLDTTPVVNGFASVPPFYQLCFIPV
Assay: Cytochrome P450 Family 2 Subfamily C Member 19 (CYP2C19) small molecule antagonists: luciferase reporter qHTS assay (AID 1671197); also: nearly all actives have a fitted effect of over 65% in size
Details: P450-Glo CYP2C19 enzyme, luciferin luminescence, 1 h; series mostly up to 115 µM; activity change, negative = inhibition: at the top concentration
Summary of the method: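 CYP2C19 P450-Glo, 1536-well qHTS. Cpd + enzyme/proluciferin substrate 10 min RT; + NADPH regen, 37C 1 h; stop with luciferin detection reagent, 20 min RT, luminescence (RLU). Pos ctrl ketoconazole.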

Row | SMILES | activity change, negative = inhibition | Potency
21 | O=C(O)c1cccc(Cl)n1 | inactive: 24.4% | –
22 | CN1CCC(=C2c3ccccc3C=Cc3ccccc32)CC1 | – | active: 24.5 µM
23 | Cc1ccc(CCn2c3c(c4cc(Cl)ccc42)CN(C)CC3)cn1 | – | active: 17.4 µM
24 | CC(=O)c1ccccc1 | – | active: 41.4 µM and inactive
25 | CCN(CCCc1ccccc1)CCCc1ccccc1 | – | active: 6.92 µM
26 | CCc1oc2ccccc2c1C(=O)c1cc(I)c(O)c(I)c1 | – | inconclusive: 43.6 µM [inhibitor, single point]
27 | C=CCOC(=O)/C=C\C(=O)OCC=C | – | inconclusive: 91 µM [inhibitor, single point]
28 | Cc1oc(-c2ccccc2)nc1CCOc1cccc2c1ccn2CCC(=O)O | – | inconclusive: 89.4 µM [inhibitor, single point]
29 | O=C(Nc1ccc(Oc2ccc(Cl)cc2)c(Cl)c1)c1cc(I)cc(I)c1O | inactive: -7.97% [at 52.9 µM] | –
30 | O=[N+]([O-])c1ccc(O)cc1 | – | inconclusive: 89.4 µM [inhibitor, single point]
31 | CN1CCC(N(Cc2cccs2)c2ccccc2)CC1 | inactive: 19.8% [at 52.9 µM] | –
32 | COc1cc(C(C)C)c2c(c1)S(=O)(=O)N(COc1cc(=O)n3cccc(OCCN4CCCCC4)c3n1)C2=O | – | inconclusive: 16.9 µM [inhibitor, single point]
33 | CCCCOc1ccc(C(=O)CCN2CCCCC2)cc1 | – | inconclusive: 43.6 µM [inhibitor, single point]
34 | Oc1ccc(CCNCCCCCCNCCc2ccccc2)cc1O | – | inconclusive: 21.9 µM [inhibitor, partial curve, poor fit]
35 | Cc1cccc(C(C)(C)C)c1O | – | inconclusive: 79.6 µM [inhibitor, single point]

Target: Cytochrome P450 2C9 (Homo sapiens) (UniProt P11712)
UniProt P11712, sequence (P11712 whole entry, looked up): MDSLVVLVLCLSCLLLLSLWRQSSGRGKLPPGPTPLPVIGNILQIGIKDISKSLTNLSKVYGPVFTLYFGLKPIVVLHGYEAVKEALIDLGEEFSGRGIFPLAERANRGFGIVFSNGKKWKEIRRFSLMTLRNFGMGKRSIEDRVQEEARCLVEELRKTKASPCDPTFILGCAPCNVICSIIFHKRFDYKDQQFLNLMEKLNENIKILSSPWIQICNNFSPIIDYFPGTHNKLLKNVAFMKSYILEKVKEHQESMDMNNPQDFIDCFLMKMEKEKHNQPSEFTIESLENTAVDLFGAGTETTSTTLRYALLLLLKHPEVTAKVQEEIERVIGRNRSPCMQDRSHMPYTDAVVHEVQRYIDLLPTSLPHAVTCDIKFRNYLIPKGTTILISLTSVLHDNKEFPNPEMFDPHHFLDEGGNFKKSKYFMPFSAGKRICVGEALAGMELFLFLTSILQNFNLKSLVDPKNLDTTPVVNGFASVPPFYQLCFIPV
Assay: Cytochrome P450 Family 2 Subfamily C Member 9 (CYP2C9) small molecule antagonists: luciferase reporter qHTS assay (AID 1671198); also: nearly all actives have a fitted effect of over 50% in size
Details: P450-Glo CYP2C9 enzyme assay, luciferin luminescence; series mostly up to 115 µM; activity change, negative = inhibition: at the top concentration
Summary of the method: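 P450-Glo proluciferin substrate with CYP2C9 enzyme; 10 min RT preincubation, then NADPH regeneration 1 h at 37C; luciferin detection reagent 20 min RT, luminescence in relative luminescence units.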

Row | SMILES | Potency | activity change, negative = inhibition
36 | C/C(=C(/OCCOc1ccc(Cl)cc1)c1ccc(Cl)cc1Cl)n1ccnc1 | active: 0.871 µM | –
37 | CC(=O)c1ccccc1 | inconclusive: 82.6 µM [inhibitor, partial curve, poor fit] | –
38 | COc1ccccc1Oc1c(NS(=O)(=O)c2ccc(C(C)(C)C)cc2)nc(-c2ncccn2)nc1OCCO | inconclusive: 34.7 µM [inhibitor, partial curve] | –
39 | CCN(CCCc1ccccc1)CCCc1ccccc1 | – | inactive: -12.4% [at 53 µM]
40 | CCCCc1cc2ccccc2c(OCCN(C)C)n1 | – | inactive: -0.426% [at 53 µM]
41 | CCc1oc2ccccc2c1C(=O)c1cc(I)c(O)c(I)c1 | active: 1.38 µM | –
42 | Cc1ccccc1N=Nc1ccc(N=Nc2c(O)ccc3ccccc23)c(C)c1 | inconclusive: 13.8 µM [inhibitor, partial curve] | –
43 | C=CCOC(=O)/C=C\C(=O)OCC=C | inconclusive: 40.6 µM [inhibitor, partial curve] | –
44 | O=S(=O)(O)c1ccccc1/C=C/c1ccc(-c2ccc(/C=C/c3ccccc3S(=O)(=O)O)cc2)cc1 | inconclusive: 64.2 µM [inhibitor, single point] | –
45 | CCCOC(=O)c1cc(O)c(O)c(O)c1 | inconclusive: 35.4 µM [inhibitor, partial curve] and inconclusive: 28.3 µM [inhibitor, partial curve, poor fit] | –
46 | O=C(Nc1ccc(Oc2ccc(Cl)cc2)c(Cl)c1)c1cc(I)cc(I)c1O | active: 38.9 µM | –
47 | O=[N+]([O-])c1ccc(O)cc1 | inconclusive: 89.4 µM [inhibitor, single point] | –
48 | COc1cc(C(C)C)c2c(c1)S(=O)(=O)N(COc1cc(=O)n3cccc(OCCN4CCCCC4)c3n1)C2=O | inconclusive: 16.9 µM [inhibitor, partial curve, poor fit] | –
49 | CC(C)OC=O | inactive | –
50 | C[C@@H]1C[C@H]2O[C@@]3(O[C@@H]2C(C)(C)O)[C@H](O)[C@@]2(C)[C@@H]4CC[C@H]5C(C)(C)[C@@H](O[C@@H]6OC[C@@H](O)[C@H](O)[C@H]6O)CC[C@@]56C[C@@]46CC[C@]2(C)[C@@H]13 | inconclusive: 19.8 µM [inhibitor, full curve, poor fit] | –
51 | Oc1ccc(CCNCCCCCCNCCc2ccccc2)cc1O | inconclusive: 38.9 µM [inhibitor, partial curve, poor fit] | –
52 | O=C(N/N=C/c1ccc([N+](=O)[O-])o1)c1ccc(O)cc1 | inconclusive: 38.9 µM [inhibitor, single point] | –
53 | Cc1cccc(C(C)(C)C)c1O | inconclusive: 56.4 µM [inhibitor, partial curve] | –
54 | CCOC(=O)C1=C[C@]2(CC)CCCN3CCc4c(n1c1ccccc41)[C@@H]32 | inconclusive: 27.5 µM [inhibitor, partial curve] | –
